Laboratory results published in the supplement of paper PMC6089552.
In all, about 3,200 compounds went through this assay and about 300 (9.4%) showed activity. The list shows a part of the results, in another mix than the full data.

System: A673/TR/shEF
Assay: cell viability (LOESS-normalised, relative to median of negative controls) (log2 ratio); higher = more viable cells (less compound effect), active = hit call of the paper (over 3 MAD below the median)
Details: treatment time: 72 h
Procedure, shortened: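 Viability of A673/TR/shEF Ewing sarcoma cells was determined by CellTiter-Glo luminescence. The cells, at 1,500 per well in 384-well plates, were grown with or without doxycycline from 24 h before compound addition to switch on EWS-FLI1 shRNA knockdown, then exposed for three days to library compounds at two or more concentrations or to DMSO controls. Signals were LOESS-corrected plate by plate, normalised to the negative-control median and log2-transformed.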

[1] = 0.25 µM, library screen: screen1, EWS-FLI1 expression: high (no doxycycline)
[2] = 0.25 µM, library screen: screen1, EWS-FLI1 expression: low (doxycycline-induced shRNA knockdown)
[3] = 2.5 µM, library screen: screen1, EWS-FLI1 expression: high (no doxycycline)
[4] = 2.5 µM, library screen: screen1, EWS-FLI1 expression: low (doxycycline-induced shRNA knockdown)
[5] = 0.25 µM, library screen: screen2, EWS-FLI1 expression: high (no doxycycline)
[6] = 0.25 µM, library screen: screen2, EWS-FLI1 expression: low (doxycycline-induced shRNA knockdown)
[7] = 2.5 µM, library screen: screen2, EWS-FLI1 expression: high (no doxycycline)
[8] = 2.5 µM, library screen: screen2, EWS-FLI1 expression: low (doxycycline-induced shRNA knockdown)

Measured: cell viability (log2)

COc1c(O)cccc1O
inactive: [1] 0.0979 | [2] -0.025 | [3] 0.121 | [4] 0.06

O=C(O)C1=CCCNC1
inactive: [1] -0.0227 | [2] -0.0335 | [5] 0.149 | [6] -0.0225 | [3] 0.0184 | [4] 0.124 | [7] 0.0891 | [8] 0.0167

Cc1cc(CC(=O)O)n(C)c1C(=O)c1ccc(Cl)cc1
inactive: [1] -0.016 | [2] 0.0741 | [3] 0.104 | [4] 0.1

NCCNC(=O)c1ncsc1-c1cccc(F)c1
0.404: [7]
inactive: [5] 0.314 | [6] 0.116 | [8] 0.199

COc1ccccc1N1CCN(CCCCNS(=O)(=O)c2cccc3c(N(C)C)cccc23)CC1
inactive: [5] 0.171 | [6] 0.0777 | [7] 0.0423 | [8] 0.0929

O=C(O)C(O)C(O)C(O)C(O)C(=O)O (stereo unspecified)
inactive: [1] 0.0508 | [2] 0.00381 | [3] 0.102 | [4] 0.133

CC12CCC(CC1)C(C)(C)O2
inactive: [1] 0.137 | [2] 0.0292 | [3] 0.175 | [4] -0.00197

CC(C)(C)c1onc(OCP(=O)(O)O)c1CC(N)C(=O)O (stereo unspecified)
inactive: [5] -0.0656 | [6] 0.0767 | [7] 0.0137 | [8] 0.0837

C[C@H](CCC(=O)O)[C@H]1CC[C@H]2[C@@H]3CC[C@@H]4C[C@H](O)CC[C@]4(C)[C@H]3C[C@H](O)[C@]12C
inactive: [1] 0.0519 | [2] 0.0395 | [3] 0.109 | [4] 0.158

CC(C)C[C@@H]1NC(=O)[C@H](CCCN)NC(=O)[C@H](C(C)C)NC(=O)[C@H](Cc2ccc(O)cc2)N[C@@H](CCC(=O)O)C(=O)N[C@@H](CC(N)=O)C(=O)[C@@H](Cc2ccccc2)NC(=O)[C@H](Cc2ccccc2)NC(=O)[C@@H]2CCCN2C(=O)[C@@H](Cc2ccccc2)NC1=O
inactive: [2] -0.0111
active: [1] -0.767 | [3] -2.84 | [4] -2.45

Nc1ncnc2c1c(I)cn2[C@@H]1O[C@H](CO)[C@@H](O)[C@H]1O
inactive: 0.025 µM, library screen: screen1, EWS-FLI1 expression: high (no doxycycline) 0.145 | 0.025 µM, library screen: screen1, EWS-FLI1 expression: low (doxycycline-induced shRNA knockdown) -0.151 | [1] -0.0341 | [2] -0.172
active: [3] -1.08 | [4] -0.349 | 25 µM, library screen: screen1, EWS-FLI1 expression: high (no doxycycline) -2.42 | 25 µM, library screen: screen1, EWS-FLI1 expression: low (doxycycline-induced shRNA knockdown) -2.11

COc1ccc2cc(C(C)C(=O)O)ccc2c1 (stereo unspecified)
inactive: [1] 0.0554 | [2] 0.0714 | [3] 0.131 | [4] 0.033

CN(C)C(=O)Nc1ccc(Cl)c(Cl)c1
inactive: [1] 0.0696 | [2] 0.0695 | [3] 0.0795 | [4] 0.139

CCCC(=O)NCCc1c2n(c3ccc(OC)cc13)CCCc1ccccc1-2
inactive: [5] 0.11 | [6] 0.046 | [7] 0.0499 | [8] 0.00193

O=C1CC2(CCCC2)CC(=O)N1CCCCN1CCN(c2ncccn2)CC1
inactive: [5] 0.236 | [6] 0.106 | [7] 0.0827 | [8] 0.0819

CN/C(=C\[N+](=O)[O-])NCCSCc1csc(CN(C)C)n1
inactive: 0.103 µM, library screen: screen3, EWS-FLI1 expression: high (no doxycycline) 0.0355 | 0.103 µM, library screen: screen3, EWS-FLI1 expression: low (doxycycline-induced shRNA knockdown) 0.0488 | 0.308 µM, library screen: screen3, EWS-FLI1 expression: high (no doxycycline) 0.0529 | 0.308 µM, library screen: screen3, EWS-FLI1 expression: low (doxycycline-induced shRNA knockdown) 0.059 | 0.926 µM, library screen: screen3, EWS-FLI1 expression: high (no doxycycline) 0.057 | 0.926 µM, library screen: screen3, EWS-FLI1 expression: low (doxycycline-induced shRNA knockdown) 0.0342 | 2.8 µM, library screen: screen3, EWS-FLI1 expression: high (no doxycycline) 0.051 | 2.8 µM, library screen: screen3, EWS-FLI1 expression: low (doxycycline-induced shRNA knockdown) 0.073 | 8.3 µM, library screen: screen3, EWS-FLI1 expression: high (no doxycycline) -0.00893 | 8.3 µM, library screen: screen3, EWS-FLI1 expression: low (doxycycline-induced shRNA knockdown) 0.105 | 25 µM, library screen: screen3, EWS-FLI1 expression: high (no doxycycline) 0.0579 | 25 µM, library screen: screen3, EWS-FLI1 expression: low (doxycycline-induced shRNA knockdown) 0.109

Cc1cc(C)c(/C=C2\C(=O)Nc3ccccc32)[nH]1
inactive: [5] 0.184 | [6] -0.145 | [7] 0.119 | [8] -0.1

CC1(C)CC[C@]2(C(=O)O)CC[C@]3(C)C(=CC[C@@H]4[C@@]5(C)CC[C@H](O)[C@@](C)(CO)[C@@H]5CC[C@]43C)[C@@H]2C1
inactive: [1] 0.0983 | [2] 0.0272 | [3] 0.173 | [4] -0.0385

CCn1ccnc1CC1COc2ccccc2O1 (stereo unspecified)
inactive: [5] 0.127 | [6] 0.0875 | [7] 0.132 | [8] 0.116

COc1ccc(-c2c(OC)c3c(OC)c4c(cc3oc2=O)OC(C)(C)C=C4)cc1
inactive: [1] 0.0786 | [2] 0.00334 | [3] 0.211 | [4] 0.00828

C=CCN1CCc2c(cc(O)c(O)c2Br)[C@@H](c2ccccc2)C1
inactive: [5] 0.181 | [6] 0.124 | [7] 0.146 | [8] 0.0914

N[C@H](C(=O)O)c1cc(O)cc(O)c1
inactive: [5] 0.128 | [6] 0.0321 | [7] 0.139 | [8] 0.0849

Cc1cccc(C#Cc2ccccc2)n1
inactive: [5] 0.0606 | [6] 0.0657 | [7] 0.137 | [8] 0.111

OC[C@H]1N[C@H](CO)[C@@H](O)[C@@H]1O
inactive: [5] 0.176 | [6] 0.0684 | [7] 0.108 | [8] 0.0354

O=c1cc[nH]c(=S)[nH]1
inactive: [1] 0.106 | [2] 0.0599 | [3] 0.112 | [4] 0.00736
